Reference: PubChem BioAssay AID2147 (National Center for Advancing Translational Sciences (NCATS), 2009)
Several values for one entry are separate records, joined by “and”; a condition that tells them apart may be missing. Identical values can stand only once. About 3,600 (1.6%) of roughly 230,000 compounds were called active. The inconclusive results got no clear call from the source; some entries with a clear call stand among them for comparison. The call rests on the fitted dose curve; in most records, active means well fitted inhibition curve with a large enough effect (not every such curve was filed as active); inconclusive means small, poorly fitted or top-dose-only effect, or another doubt; inactive means no such curve, though single readings can be large or run the other way. Potencies of inconclusive entries are doubtful fits and often do not repeat.

The compounds below were run against Lysine-specific demethylase 4E (Homo sapiens) (UniProt B2RXH2) (assay: qHTS Assay for Inhibitors of Human Jumonji Domain Containing 2E (JMJD2E)). Settings: JMJD2E catalytic domain, FDH-coupled NADH fluorescence (FDH is formaldehyde dehydrogenase); series mostly up to 57.1 µM.
Chain of UniProt B2RXH2 (B2RXH2 whole entry, looked up, the tested form may be a part): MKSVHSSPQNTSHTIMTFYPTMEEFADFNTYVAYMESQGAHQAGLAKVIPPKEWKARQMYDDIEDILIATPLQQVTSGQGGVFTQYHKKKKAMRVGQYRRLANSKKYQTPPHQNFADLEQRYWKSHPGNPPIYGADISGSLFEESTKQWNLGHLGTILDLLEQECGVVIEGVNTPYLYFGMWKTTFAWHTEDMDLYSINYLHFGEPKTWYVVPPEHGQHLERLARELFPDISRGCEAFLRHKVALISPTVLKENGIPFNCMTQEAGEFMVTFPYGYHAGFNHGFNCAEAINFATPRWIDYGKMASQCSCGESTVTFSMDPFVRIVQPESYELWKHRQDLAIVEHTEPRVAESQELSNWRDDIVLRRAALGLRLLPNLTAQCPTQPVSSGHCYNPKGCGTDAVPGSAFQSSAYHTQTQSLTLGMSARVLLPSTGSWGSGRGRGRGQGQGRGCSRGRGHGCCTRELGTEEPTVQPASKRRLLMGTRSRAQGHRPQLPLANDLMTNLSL
Further: nearly all actives have a fitted effect of over 50% in size.
Potency means the concentration at half of the fitted maximal effect; tags describe the fitted curve by direction and shape.

Row | Structure (SMILES) | Potency
1 | Cc1cc(C)c2c(N)c(S(=O)(=O)c3ccccc3)sc2n1 | inconclusive: 31.6 µM [inhibitor, single point]
2 | Cc1[nH]c2ccccc2c1C(=O)C(=O)N1CCCc2ccccc21 | inactive
3 | COc1ccc(NC(=S)Nc2ccc3nc(C)c(C)nc3c2)cc1 | inactive
4 | CC(=O)[C@]1(O)CCC2C3CC(C)C4=CC(=O)C=CC4(C)[C@@]3(F)C(O)C[C@]21C (stereo partly drawn) | inactive
5 | Nn1c(Cc2cccc3ccccc23)nnc1SCc1ccc(Cl)c(Cl)c1 | inactive
6 | COc1ccc(S(=O)(=O)N2CCCN(CC(=O)C(C)(C)C)CC2)cc1 | inactive
7 | COc1cc2c(cc1NC(=O)CSc1ccccc1)oc1ccccc12 | inconclusive: 39.8 µM [inhibitor, single point]
8 | Cc1cccc2cc(C#N)c(NCCNS(=O)(=O)c3ccccc3)nc12 | inconclusive: 35.5 µM [inhibitor, partial curve]
9 | COCCN(C(=O)Cc1cccs1)C(C(=O)NCc1ccc(OC)cc1)c1ccc(C)cc1 (stereo not drawn) | inactive
10 | COc1cc(/C=C/C(=O)O)cc(S(=O)(=O)NCCCO)c1OC | inconclusive: 28.2 µM [inhibitor, partial curve]
11 | Cc1ccc(NC(=O)c2cc(-c3cccs3)on2)cc1C | inconclusive: 28.2 µM [inhibitor, single point]
12 | O=C(CNC(=O)c1ccc(S(=O)(=O)N2CCCC2)cc1)N/N=C/c1ccc(Cl)cc1 | inactive
13 | CC(C)NC(=O)CN1CCN(c2ncccn2)CC1 | inconclusive: 28.2 µM [inhibitor, single point]
14 | Cc1ccc(-c2nc3ccccc3[nH]2)cc1N | inconclusive: 31.6 µM [inhibitor, partial curve]
15 | C/C(=N\N1C(=O)c2ccccc2NC1c1ccco1)c1ccccc1O (stereo not drawn) | active: 22.4 µM
16 | Cc1ccc(C(=O)Nc2ccc3[nH]c(=O)[nH]c3c2)c(C)c1 | inconclusive: 35.5 µM [inhibitor, single point]
17 | CCN(CC)CCCNC(=S)N(Cc1cccs1)Cc1cc2cc3c(cc2[nH]c1=O)OCCO3 | inconclusive: 22.4 µM [inhibitor, partial curve]
18 | O=C(O)COc1ccc2c(c1)O/C(=C\c1cccs1)C2=O | inconclusive: 39.8 µM [inhibitor, single point]
19 | COc1ccc(CNC(=O)C2CCC(CNS(=O)(=O)c3cccc4nsnc34)CC2)cc1 (stereo not drawn) | inactive
20 | COc1nccc(-c2c(-c3ccc(F)cc3)ncn2C2CCC(O)CC2)n1 (stereo not drawn) | inconclusive: 31.6 µM [inhibitor, partial curve]
21 | COc1ccc(-n2nc(C(=O)NCc3ccco3)c3c4ccccc4n(C)c3c2=O)cc1 | inconclusive: 35.5 µM [inhibitor, single point]
22 | O=C(CC(C(=O)N1CCc2ccccc21)n1ccnc1)NCc1cccnc1 (stereo not drawn) | inconclusive: 25.1 µM [inhibitor, partial curve, poor fit]
23 | CCN(CC)c1ccc(/C=N/N2CCN(Cc3ccc(C)cc3C)CC2)c(O)c1 | inactive
24 | O=C(c1cccc(NS(=O)(=O)c2ccc(F)c(F)c2)c1)N1CCN(Cc2ccccc2)CC1 | inactive
25 | O=C(Nc1cccc(F)c1)c1cccnc1NCCc1ccccc1 | inconclusive: 28.2 µM [inhibitor, single point]

Row | Structure (SMILES) | Potency
26 | C=CCn1c(=O)c(C(=O)Nc2cccnc2)c(O)c2ccccc21 | inconclusive: 35.5 µM [inhibitor, single point]
27 | O=C(N/N=C/c1cc(Br)ccc1O)c1cccc(N2CCCC2=O)c1 | active: 28.2 µM
28 | Nc1[nH]c(N=NC(=O)c2ccccc2O)c2ccccc12 | active: 25.1 µM
29 | CN(C)c1ccc(C(=O)Nc2nc3c(s2)CCCC3)cc1 | inconclusive: 31.6 µM [inhibitor, partial curve]
30 | COc1ccc2[nH]c(=O)c3c(c2c1)OC(C)(C)C=C3 | inconclusive: 35.5 µM [inhibitor, partial curve] and inconclusive: 31.6 µM [inhibitor, single point] and inconclusive: 5.01 µM [inhibitor, full curve]
31 | COc1ccc(-c2c(NC(C)=O)n(C)c3ccccc3c2=O)cc1 | inconclusive: 31.6 µM [inhibitor, partial curve]
32 | O=C1COc2ccc(C(=O)COC(=O)Cn3cnc4ccccc43)cc2N1 | inactive
33 | CC(=O)C1=C(C)OC(N)=C(C#N)C1c1cccc2ccccc12 (stereo not drawn) | inconclusive: 35.5 µM [inhibitor, single point]
34 | NC(=O)CC[C@@H]1NC(=O)[C@H](CO)NC(=O)c2cc([N+](=O)[O-])cc(I)c2NCCCC[C@@H](C(N)=O)NC(=O)[C@H](Cc2ccc(O)cc2)NC1=O | inactive
35 | Cc1ccc(NC(=O)c2cc(-c3ccco3)on2)cc1C | inconclusive: 25.1 µM [inhibitor, partial curve]
36 | Cc1ccc(Nc2cc(C)nc(-c3ccccc3O)n2)cc1 | inconclusive: 28.2 µM [inhibitor, single point]
37 | COC(=O)c1c(NC(=O)C2SC(=NC3CCCCC3)C(C(N)=O)=C2N)sc2c1CCCC2 (stereo not drawn) | inconclusive: 35.5 µM [inhibitor, single point]
38 | CC(C)(C)c1ccc2c(c1)C(=O)c1ccccc1C2=O | inactive
39 | CN(C)c1ccc(C(CN)c2c[nH]c3ccccc23)cc1 (stereo not drawn) | inactive
40 | CC(C)Cc1nc2sc3c(SCC(N)=O)ncnc3c2c2c1CCC2 | inactive
41 | CC(C)(C)c1ccc(C(=O)Cn2nc(C(=O)O)c3ccccc3c2=O)cc1 | inactive
42 | CN1c2ccc(Cl)cc2C(=O)NC1C1CC=CCC1 (stereo not drawn) | inconclusive: 14.1 µM [inhibitor, partial curve]
43 | CC(=O)C1=C(C)OC(N)=C(C#N)C1c1cc2cccc(C)c2nc1Cl (stereo not drawn) | inconclusive: 39.8 µM [inhibitor, single point]
44 | N#Cc1c(-c2ccco2)cc(C2CC2)nc1N | inconclusive: 28.2 µM [inhibitor, partial curve]
45 | O=C(O)c1ccccc1C1=Nc2ccc(O)cc2Oc2cc(O)ccc21 | inactive
46 | COc1ccc(C(=O)Nc2nc3ccccc3s2)cc1OC | inconclusive: 0.01 µM [inhibitor, full curve, poor fit]
47 | O=C(CCN1C(=O)c2ccccc2S1(=O)=O)Nc1ccccc1 | inactive
48 | CCOC(=O)N1CCN(C(=O)c2ccc3nc4ccsc4c(=O)n3c2)CC1 | inconclusive: 31.6 µM [inhibitor, partial curve]
49 | COc1ccc(CCNC(=O)CC2SC(=NCCC(C)C)NC2=O)cc1OC (stereo not drawn) | inactive
50 | O=c1[nH]c2ccc(Cl)cc2c(-c2ccccc2)c1SC(=S)N1CCCCC1 | inactive

Row | Structure (SMILES) | Potency
51 | O=C(CCCO)N/N=C/c1cc(Br)ccc1O | inconclusive: 28.2 µM [inhibitor, partial curve]
52 | Cc1occc1C(=O)N/N=C/C1=C(N2CCOCC2)C(=C\c2ccc(Cl)cc2Cl)/CC1 | inactive
53 | COc1ccc(C(=O)Nc2ccc3nc(N4CCCCC4)cc(C)c3c2)cc1OC | inconclusive: 28.2 µM [inhibitor, partial curve]
54 | CC1=C/C(=N\OS(=O)(=O)c2ccccc2)C=CC1=O | inconclusive: 25.1 µM [inhibitor, single point]
55 | COCc1cc(C)nc(OCC(=O)N/N=C/c2ccc(-c3cc([N+](=O)[O-])ccc3Cl)o2)c1C#N | inactive
56 | Cc1ccc(/C=N/NC(=O)c2cccc(S(=O)(=O)Nc3ccccc3Cl)c2)o1 | inactive
57 | COc1ccc2nc3c(cc2c1)Cc1ccccc1-3 | inconclusive: 25.1 µM [inhibitor, partial curve]
58 | O=c1cc(-c2ccc(O)cc2)oc2ccccc12 | inconclusive: 39.8 µM [inhibitor, single point]
59 | Cc1ccc2c(c1)CC1(CN2C)C(=O)OC(C)(C)OC1=O | inconclusive: 25.1 µM [inhibitor, partial curve]
60 | CCCSc1nsc(SCCC)c1C#N | inactive
61 | COc1cccc(NC(=O)C(Cc2ccccc2)NC(=O)C2CCC(C)CC2)c1 (stereo not drawn) | inactive
62 | CCn1nc(C)c(Br)c1C(=O)Sc1ccccc1Cl | inconclusive: 20 µM [inhibitor, single point]
63 | O=C(c1cc(=O)[nH]c2ccccc12)N1CCN(S(=O)(=O)c2ccc3ccccc3c2)CC1 | inconclusive: 28.2 µM [inhibitor, single point]
64 | CCCCCC(=O)/C=C/[C@H]1[C@H](O)CC(=O)[C@@H]1C/C=C\CCCC(=O)O | inactive
65 | CN(C)c1cccc(C(=O)OCC(=O)Nc2nccs2)c1 | inconclusive: 22.4 µM [inhibitor, single point]
66 | N#CC1=C(N)OC2=C(CC/C2=C\c2ccccc2Cl)C1c1ccccc1Cl (stereo not drawn) | inconclusive: 28.2 µM [inhibitor, partial curve]
67 | Cc1[nH]c2ccccc2c1/C=N/NC(=S)NCc1ccccc1 | inactive
68 | CCOc1ccc2nc(NC(=O)Nc3cccs3)sc2c1 | inactive
69 | Cc1cccc(S(=O)(=O)C(C#N)c2nc3ccccc3nc2N2CCOCC2)c1 (stereo not drawn) | inconclusive: 28.2 µM [inhibitor, single point]
70 | COc1ccc(/C=N/N(C)c2cc(=O)n(C)c(=O)[nH]2)cc1OC | inconclusive: 39.8 µM [inhibitor, single point]
71 | CCCCN(CC)S(=O)(=O)c1ccc(C(=O)Nc2nnc(-c3cccs3)o2)cc1 | active: 25.1 µM
72 | O=C(N/N=C/c1sc(=O)[nH]c1-[n+]1ccccc1)c1ccccc1[O-] | inconclusive: 35.5 µM [inhibitor, single point]
73 | Nc1cc([N+](=O)[O-])ccc1Nc1ccc(O)cc1 | inconclusive: 22.4 µM [inhibitor, single point]
